Assay results as given in PubChem BioAssay AID1240 (Sanford-Burnham Center for Chemical Genomics, 2008).
Out of some 50,000 compounds screened, about 800 (1.6%) showed an effect of 50% or more. The list shows a part of the results.

target: Bcl-2-like protein 10 (Homo sapiens) (UniProt Q9HD36); test: TR3 peptide-Bcl-B binding displacers, biochemical primary FP assay, phenotype converters (AID 1240); settings: GST-Bcl-B / FITC-TR3 peptide fluorescence polarization; stronger effect = higher value; compound at 3.75 mg/L;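 further: 0% = Bcl-B with tracer peptide and DMSO and 100% = tracer peptide lacking Bcl-B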
Sequence of UniProt Q9HD36 (Q9HD36 whole entry, looked up): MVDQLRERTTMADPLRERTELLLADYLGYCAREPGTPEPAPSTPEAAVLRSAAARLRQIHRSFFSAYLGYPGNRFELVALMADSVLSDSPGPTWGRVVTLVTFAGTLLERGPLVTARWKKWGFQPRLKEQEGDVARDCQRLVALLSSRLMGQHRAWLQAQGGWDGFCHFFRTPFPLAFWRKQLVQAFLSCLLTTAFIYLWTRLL

| SMILES | displacement |
| --- | --- |
| O=C(Cc1ccccc1)Nc1sc2c(c1C(=O)Nc1ccc(Cl)cc1)CCC2 | -6.9% |
| CCOc1cc2c(C(=O)OC)c(C)oc2cc1Br | 7.1% |
| O=C(NNC(=O)c1ccccc1Cl)c1ccc(O)cc1O | 22.6% |
| Cc1cc2c(cc1C)CN(c1cccc(C(=O)N/N=C/c3ccc(O)c(O)c3)c1)C2 | 8.7% |
| O=C(Nc1nc(-c2ccccc2)cs1)C1c2ccccc2Oc2ccccc21 | -0.6% |
| CC(Cc1ccccc1)N=Cc1c(O)[nH]c2ccccc12 (stereo not given) | -10% |
| O=C(Nc1ccc(Sc2ccc([N+](=O)[O-])cc2)cc1)c1cccs1 | -7.1% |
| COC(=O)CN(CCc1ccccc1)S(=O)(=O)c1ccc(OC)c(OC)c1 | 1.2% |
| CCCOc1cccc(C(=O)Nc2cc(NC(=O)c3cccc(OCCC)c3)cc(C(=O)O)c2)c1 | 9.2% |
| CSc1ccccc1NC(=O)c1cc2nc(-c3cccs3)cc(C(F)(F)F)n2n1 | -3.3% |
| CC1=NN(c2ccccc2)C(=O)C1C(C)C[N+](=O)[O-] (stereo not given) | -9.8% |
| CC(C)Oc1cc2oc(=O)c3c(c2cc1Cl)CCC3 | -6.9% |
| Cc1ccccc1NCC(=O)N/N=C\c1cc(Cl)ccc1O | -7.7% |
| C/C=C/COC(=O)C1=C(C)NC(=O)NC1c1cc(Cl)c(O)c(OC)c1 (stereo not given) | 8.4% |
| Cc1cc(=O)[nH]c(Nc2nc3ccccc3o2)n1 | 10.4% |
| Cc1cc(Cn2c(C)nc3ccccc32)c(C)cc1Cn1c(C)nc2ccccc21 | -10.9% |
| O=C1/C(=C\c2ccccc2)SC(=S)N1c1cccc(C(F)(F)F)c1 | -0.2% |
| CCN(CC)C(=O)C(NC(=O)c1ccc([N+](=O)[O-])cc1)C12CC3CC(CC(C3)C1)C2 (stereo not given) | 9.8% |
| COc1ccc(CN2CCN(C3CCN(Cc4ccccc4)CC3)CC2)cc1OCc1ccccc1 | -14% |
| O=[N+]([O-])c1ccc(CSc2nnc(-c3ccncc3)n2-c2ccccc2)cc1 | 1% |
| CCOc1ccc(NC(=O)CN(Cc2ccccc2)S(=O)(=O)c2ccc(OC)cc2)cc1 | -2.4% |
| CCCOc1cccc(C(=O)Nc2cc(C(=O)OC)cc(C(=O)OC)c2)c1 | 4% |

| SMILES | displacement |
| --- | --- |
| O=C1C(c2ccccc2)=C(c2ccccc2)C(=O)N1O | 14.8% |
| Cc1cc(/C=C2\C(=O)NC(=S)N(c3ccccc3)C2=O)c(C)n1-c1cccnc1 | 3.9% |
| COc1ccc(-n2nc3cc(C)c(NC(=O)c4ccc([N+](=O)[O-])cc4)cc3n2)cc1 | 3% |
| Cn1c(/C=C/c2cccnc2)nc2ccccc2c1=O | 7.6% |
| CCOc1ccc(-c2n[nH]c(=S)n2-c2ccccc2)cc1 | -6.1% |
| Cc1ccccc1S(=O)(=O)NC(=O)C(C)O (stereo not given) | 1% |
| O=C(NCCC(c1ccccc1)c1ccccc1)Nc1cc(F)c(F)cc1Cl | -13.5% |
| Cn1c2ccc(Br)cc2c2nc3cc4ccccc4cc3nc21 | -11% |
| COc1ccccc1OC1=NS(=O)(=O)c2cc([N+](=O)[O-])ccc21 | -6.5% |
| O=C(Nc1ccc2ccccc2c1)c1cc([N+](=O)[O-])ccc1Br | 3% |
| O=C(Nc1cccc(F)c1)C1CC(=O)N(c2ccc(Br)cc2)C1 (stereo not given) | -2.4% |
| COC(=O)CCC(=O)Nc1ccc(C(=O)c2ccccc2)cc1 | 0.7% |
| COc1cccc(/C=C2/SC(N)=NC2=O)c1O | 5.3% |
| Cc1ccc(C(=O)NC(=S)Nc2c[nH]c(=O)[nH]c2=O)cc1 | -8% |
| Cc1ccc(C(=O)N/C(=C\c2ccc(Cl)cc2)C(=O)NCC(C)C)cc1 | 13.4% |
| Cc1cccc(C(=O)Nc2ccc(Cl)cc2C)c1 | 8% |
| COc1ccccc1/C=C1/SC(=S)N(C(C)C(=O)O)C1=O (stereo not given) | -1.5% |
| C/C(C=O)=C\c1ccc(/C=C(C)/C=C2/SC(=S)N(c3ccccc3)C2=O)cc1 | 19.7% |
| COc1cc([N+](=O)[O-])ccc1NC(=O)COc1ccc(C)cc1C | 4.4% |
| O=C(Nc1ccc(Nc2ccccc2)cc1)c1ccc([N+](=O)[O-])cc1 | 1.6% |
| CN(C)c1ccc(NC(=O)Nc2ccc(Cl)c(Cl)c2)cc1 | 2.6% |
| O=C(CCCNc1ccccc1)N/N=C/c1cccnc1 | -4.8% |

| SMILES | displacement |
| --- | --- |
| Cc1cccc(NCC(=O)N/N=C\c2c(Br)cc(Br)c(O)c2Br)c1 | 4.7% |
| CCOC(=O)c1sc(NC(=O)C2CCCCC2)nc1C | -3% |
| CCOc1ccc(C(=O)Nc2ccc(N3CCOCC3)cc2)cc1Cl | 9.6% |
| Oc1ccccc1/C=N/Nc1cc(N2CCOCC2)nc(N2CCOCC2)n1 | -7.1% |
| CCC(C)(c1ccc(C=O)s1)c1ccc(C=O)s1 | 12.3% |
| O=C(Nc1ccccc1C(F)(F)F)c1cncc(Br)c1 | 14.9% |
| CC1=NN(C(=O)OC(C)(C)C)C(O)(C(F)(F)F)C1 (stereo not given) | 2.7% |
| CCCC(=Nc1cccc([N+](=O)[O-])c1)C1=C(O)CC(C)(C)CC1=O | -8.9% |
| CC(=O)C1=C(O)C(=O)N(CCN(C)C)C1c1ccc(Cl)cc1 (stereo not given) | 1.5% |
| O=C(NCc1cccnc1)c1cnn2c(C(F)(F)F)cc(-c3ccc4c(c3)OCO4)nc12 | 11.3% |
| COc1ccc(S(=O)(=O)N(CC(=O)Nc2ccc(Cl)cc2Cl)c2ccc(C)cc2)cc1OC | 6% |
| O=C(COc1ccccc1)Nc1ccc(NC(=O)COc2ccccc2)cc1 | 1.4% |
| Cc1cccc(NC(=O)c2ccc3c(c2)OCO3)n1 | 7.9% |
| O=C(c1ccccc1)N1CCN(c2cc(N3CCOCC3)c(F)cc2[N+](=O)[O-])CC1 | -6.5% |
| Cn1c(=O)[nH]c(=O)c2ncn(Cc3ccccc3)c21 | -4.8% |
| CCOc1ccc(NC(=S)NC(NC(=O)c2cccc(C)c2)C(Cl)(Cl)Cl)cc1 (stereo not given) | -4.9% |
| CCCN1CCC(=NNC(=O)c2ccc(Br)o2)CC1 | -2.1% |
| Cc1cccc(NC(=O)CC2Sc3ccc(C(F)(F)F)cc3NC2=O)c1C (stereo not given) | 2.5% |
| CC(=O)c1c(C)nc(-c2ccc([N+](=O)[O-])cc2)nc1N | -10.3% |
| CC(=O)CCc1c(C)c2ccccc2[nH]c1=S | -16.6% |
| C=CCN1C(=O)/C(=C\c2cccc(OCC(=O)O)c2)C(=O)NC1=S | 18.6% |
| O=C(CSc1nccn1Cc1ccccc1)c1ccc([N+](=O)[O-])cc1 | 2.8% |

| SMILES | displacement |
| --- | --- |
| Cc1nc(N)sc1C(=O)N/N=C/C=C/c1ccccc1 | 48.4% |
| O=C(NC(=S)Nc1ccc(Cl)cc1Cl)c1ccc(Cl)cc1 | -8.7% |
| CC(C)Nc1ncnc2ccc(Br)cc12 | 11.9% |
| CCCC(=O)N1CCN(c2ccc([N+](=O)[O-])cc2Cl)CC1 | -2.9% |
| C(=N\n1cnnc1)/c1ccc(OCCOc2ccc(C3CCCCC3)cc2)cc1 | -7.4% |
| COc1ccc(OC)c(N(CC(=O)Nc2ccc(Br)cc2)S(C)(=O)=O)c1 | 10.7% |
| COc1ccc(/C=C2/C(=O)NC(=O)N(c3ccc(C(C)C)cc3)C2=O)c(OC)c1 | -18.1% |
| O=C1c2cccc3cc(Br)cc(c23)C(=O)N1Nc1ccccc1 | -1.2% |
| COc1ccccc1NC(=O)C(=O)NCC(C)C | 9.1% |
| O=C1c2ccccc2C(=O)N1CCCSc1nnc(-c2cccs2)n1-c1ccccc1 | 2.4% |
| Cc1cc(C)n(-c2cc(-n3nc(C)cc3C)ncn2)n1 | 3.9% |
| COc1ccc(CN=CC2=C(O)CC(c3ccccc3)CC2=O)cc1 (stereo not given) | -3% |
| c1ccc(CCNc2ccnc3cc4ccccc4cc23)cc1 | 3.3% |
| CC(C)CNC(=O)/C=C/c1ccccc1 | -4% |
| Cc1ccccc1CNC(=O)c1ccc(N(C)S(=O)(=O)c2ccccc2)cc1 | 3.7% |
| COc1ccc(/C(C)=N/OCC(=O)N2CCN(C(c3ccccc3)c3ccccc3)CC2)cc1OC | -6.6% |
| CCOc1ccc(Nc2nc(Nc3ccc(O)cc3)nc(C)c2[N+](=O)[O-])cc1 | -4% |
| CC(=O)NC1=NC(=O)/C(=C\c2ccccc2C)S1 | -6.5% |
| CC(C)C1=CC23CCC4C(C)(C(=O)O)CCCC4(C)C2CC1C1C(=O)N(c2ccc(O)cc2)C(=O)C13 (stereo not given) | -7.4% |
| COc1ccc(C2C3C(=O)N(c4ccc([N+](=O)[O-])cc4)C(=O)C3N3CCCN23)cc1 (stereo not given) | 8.1% |
| O=C(/C=C/c1ccccc1)NC(=S)Nc1cccnc1 | 11.6% |
| COC(=O)/C(=C\N(C(C)C)C(C)C)[N+](=O)[O-] | 11.1% |

| SMILES | displacement |
| --- | --- |
| Cc1ccc(C(=O)O)cc1NC(=O)CCCC(=O)O | -4.1% |
| O=C(Cc1ccccc1)Nc1ccc(Cc2ccncc2)cc1 | 13.4% |
| O=C(CCN1C(=O)S/C(=C/c2ccc(Cl)cc2)C1=O)N1CCOCC1 | -7% |
| CCOc1cc(/C=N/n2cnnc2)ccc1OCCOc1ccc(Br)cc1 | 19.3% |
| Cc1ccccc1NC(=O)C1CC=CCC1C(=O)O (stereo not given) | 11.8% |
| CCOc1cc(/C=C2/SC(=S)NC2=O)cc(Br)c1OCc1ccc(F)cc1 | 3.6% |
| CC(=O)Nc1ccc(S(=O)(=O)NCCSc2ccccn2)cc1 | 2.8% |
| CN(Cc1ccccc1)Cc1c(O)ccc2c(-c3ccccc3)cc(=O)oc12 | -2% |
| CCOC(=O)CP(=O)(c1ccc(Cl)cc1)c1ccc(Cl)cc1 | 1.6% |
| O=C(COc1ccc(Cl)cc1Cl)Nc1ccc(Br)c(Cl)c1 | -5.5% |
| O=C(c1cccnc1)N1N=C(c2ccncc2)CC1(O)C(F)(F)F (stereo not given) | -13.4% |
| CC1=C(C(=O)OC(C)C)C(c2ccccc2Cl)C2=C(CC(C)(C)CC2=O)N1 (stereo not given) | 2.8% |
| COC(=O)c1c(NC(=O)C(F)(F)F)sc(/C(C)=C/C#N)c1C | 23.1% |
| C=CCc1cccc(/C=N/NC(=O)CCC2C(=O)NN=C2C)c1O (stereo not given) | -20.1% |
| O=C(CN1C(=O)/C(=C/c2ccccc2F)SC1=S)Nc1ccccc1F | 2.1% |
| O=C(O)CCC(NC(=O)c1ccc(I)cc1)C(=O)O (stereo not given) | 1.2% |
| COc1cc(/C=C2\SC(=S)NC2=O)ccc1OCC(=O)O | 3.8% |
| Cn1c(SCC(=O)N/N=C/c2ccccc2O)nc2ccccc21 | -18% |
| CCOC(=O)C1CCN(C2CC(=O)N(c3ccc(C)cc3)C2=O)CC1 (stereo not given) | 7.6% |
| O=C(Nc1ccc(F)c([N+](=O)[O-])c1)c1cc(Br)ccc1Cl | 6.5% |
| Cc1ccc(NC(=O)c2cccc(C(=O)Nc3ccc(C)c(C)c3)c2)cc1C | -0.1% |
| COc1ccc(/C=C/C(=O)Nc2cc(S(N)(=O)=O)ccc2C)cc1 | -0.9% |
